The other results are listed elsewhere or left out.
Legend:
[1] = system: HSkMC (human skeletal muscle cells); experiment: cytotoxicity call (relative viability < 0.9); settings: 10 µM
[2] = system: HepG2; experiment: cytotoxicity call (relative viability < 0.9); settings: 10 µM
[3] = system: S. aureus RN4220; experiment: growth inhibition call (relative growth <= 0.2); settings: 50 µM

Structure (SMILES) | cytotoxicity call [1] | cytotoxicity call [2] | growth inhibition call [3]
Cc1cc2cc(CN)ccc2[nH]1 | inactive | inactive | inactive
CC(C)NC(=O)N(C)C[C@H]1Oc2ccc(NC(=O)Nc3ccc4c(c3)OCO4)cc2C(=O)N([C@@H](C)CO)C[C@H]1C | inactive | inactive | inactive
C[C@@H]1CCCCO[C@H](CN(C)Cc2ccc(C(=O)O)cc2)[C@@H](C)CN([C@@H](C)CO)C(=O)c2cc(NS(=O)(=O)c3ccccc3)ccc2O1 | inactive | inactive | inactive
Cc1noc(C)c1S(=O)(=O)N(C)C[C@H]1OCc2cn(nn2)CCCC(=O)N([C@H](C)CO)C[C@H]1C | inactive | inactive | inactive
CS(=O)(=O)[C@H]1CCNC1 | inactive | inactive | inactive
CC(C)CC#Cc1ccc2c(c1)O[C@H](CN(C)C(=O)Cc1ccncc1)[C@H](C)CN([C@@H](C)CO)S2(=O)=O | inactive | inactive | inactive
O=S1(=O)COC[C@@H](c2ccccc2)N1 | inactive | inactive | inactive
COc1ccc(NC(=O)Nc2ccc3c(c2)C(=O)N([C@H](C)CO)C[C@H](C)[C@H](CN(C)C(=O)Nc2ccc4c(c2)OCO4)OCCCC[C@H](C)O3)cc1 | inactive | inactive | inactive
Cc1noc(C)c1NC(=O)Nc1ccc2c(c1)CC(=O)N([C@@H](C)CO)C[C@H](C)[C@@H](CN(C)C(=O)Nc1cccc3ccccc13)O2 | inactive | inactive | inactive
C[C@@H]1CN([C@@H](C)CO)C(=O)Cc2cc(NC(=O)CCN3CCOCC3)ccc2O[C@@H]1CN(C)C(=O)Nc1ccccc1 | inactive | inactive | inactive
C[C@@H]1CCCCO[C@@H](CN(C)C(=O)Nc2ccccc2)[C@H](C)CN([C@@H](C)CO)C(=O)c2cc(NC(=O)Nc3ccc(F)cc3)ccc2O1 | inactive | inactive | inactive
COc1ccc(S(=O)(=O)N(C)C[C@H]2Oc3ccc(NS(=O)(=O)c4cccs4)cc3CC(=O)N([C@@H](C)CO)C[C@@H]2C)cc1 | inactive | inactive | inactive
CCOC(=O)Cc1csc(/C(=N/O)C(N)=O)n1 | inactive | inactive | inactive
C[C@H](CO)N1C[C@H](C)[C@H](CN(C)C(=O)Nc2ccc3c(c2)OCCO3)OCc2cn(nn2)CCCC1=O | inactive | inactive | inactive
C[C@@H]1CN([C@@H](C)CO)S(=O)(=O)c2ccc(-c3ccc(F)cc3)cc2O[C@H]1CN(C)C(=O)C1CCOCC1 | inactive | inactive | inactive
C[C@@H]1CN([C@@H](C)CO)C(=O)c2cc(C#Cc3ccccc3F)cnc2O[C@@H]1CN(C)C(=O)c1ccc2c(c1)OCO2 | inactive | inactive | inactive
C=CC[C@@H](CC(=O)NCCO)C(=O)NCCOC(=O)[C@H](CC=C)NC(=O)OCC1c2ccccc2-c2ccccc21 | inactive | inactive | inactive
C[C@H]1CN([C@@H](C)CO)C(=O)Cc2cc(NS(=O)(=O)c3ccccc3)ccc2O[C@H]1CN(C)Cc1ccc2c(c1)OCO2 | inactive | inactive | inactive
C[C@H]1CN([C@@H](C)CO)C(=O)c2cc(NC(=O)CCCN(C)C)ccc2O[C@H]1CN(C)C(=O)Nc1ccc2c(c1)OCO2 | inactive | inactive | inactive
C[C@@H]1CN([C@@H](C)CO)C(=O)CCCn2cc(nn2)CO[C@@H]1CN(C)S(C)(=O)=O | inactive | inactive | inactive
Cc1noc(C)c1S(=O)(=O)N(C)C[C@H]1Oc2ccc(N(C)C)cc2CC(=O)N([C@H](C)CO)C[C@H]1C | inactive | inactive | inactive
Cc1ccc(S(=O)(=O)Nc2ccc3c(c2)C(=O)N([C@H](C)CO)C[C@@H](C)[C@H](CN(C)C(=O)CCC(F)(F)F)OCCCC[C@@H](C)O3)cc1 | inactive | inactive | inactive
C[C@H]1CCCCO[C@H](CN(C)Cc2ccc(Cl)c(Cl)c2)[C@@H](C)CN([C@@H](C)CO)C(=O)c2cc(NC(=O)Nc3ccc(F)cc3)ccc2O1 | inactive | active | inactive

Structure (SMILES) | cytotoxicity call [1] | cytotoxicity call [2] | growth inhibition call [3]
C[C@@H]1CN([C@H](C)CO)C(=O)CCCn2nncc2CO[C@H]1CN(C)S(=O)(=O)c1ccc(Cl)cc1 | inactive | inactive | inactive
CO[C@@H]1CN(C)C(=O)c2cc(NC(=O)C3CC3)ccc2OC[C@H](C)N(C(=O)CN2CCOCC2)C[C@H]1C | inactive | inactive | inactive
Cc1noc(C)c1S(=O)(=O)N(C)C[C@@H]1Oc2ccc(NC(=O)C3CC3)cc2CC(=O)N([C@H](C)CO)C[C@H]1C | inactive | inactive | inactive
CCCNC(=O)N(C)C[C@@H]1Oc2cc(-c3ccccc3F)ccc2S(=O)(=O)N([C@@H](C)CO)C[C@H]1C | inactive | inactive | inactive
COc1ccc(S(=O)(=O)N(C)C[C@@H]2Oc3c(NC(=O)c4ccncc4)cccc3C(=O)N([C@@H](C)CO)C[C@@H]2C)cc1 | inactive | inactive | inactive
CO[C@@H]1CN(C)C(=O)c2cc(NC(=O)NC(C)C)ccc2OC[C@@H](C)N(Cc2ccc(-c3ccccn3)cc2)C[C@@H]1C | inactive | inactive | inactive
NCc1ccc(C(=O)O)cc1 | inactive | inactive | inactive
COc1ccc2c3c(n(c2c1)C)[C@@H](CO)N(C[C@]13CN(C1)C(=O)c1ccncc1)C(=O)C1CCOCC1 | inactive | inactive | inactive
NNC(=O)c1cccc(Cn2cccn2)c1 | inactive | inactive | inactive
O=C(O)/C=C/C(=O)O | inactive | inactive | inactive
CN(CC=Cc1ccccc1)Cc1cccc2ccccc12.Cl | inactive | inactive | inactive
Cc1ccc(S(=O)(=O)N(C)C[C@H]2OCCCC[C@@H](C)Oc3ccc(NC(=O)Nc4c(C)noc4C)cc3C(=O)N([C@@H](C)CO)C[C@@H]2C)cc1 | inactive | inactive | inactive
Cc1noc(C)c1NC(=O)Nc1ccc2c(c1)C(=O)N([C@@H](C)CO)C[C@H](C)[C@H](CN(C)S(=O)(=O)c1ccccc1)O2 | inactive | inactive | inactive
Cc1noc(C)c1NC(=O)N(C)C[C@H]1OCCCC[C@H](C)Oc2ccc(NC(=O)CCC(F)(F)F)cc2C(=O)N([C@@H](C)CO)C[C@@H]1C | inactive | inactive | inactive
CO[C@H](CN(C)C(=O)c1ccccc1F)[C@@H](C)CN([C@@H](C)CO)S(=O)(=O)c1ccc(Cl)cc1 | inactive | inactive | inactive
C[C@H](CO)N1C[C@H](C)[C@@H](CN(C)S(=O)(=O)c2cn(C)cn2)Oc2ccc(NC(=O)Cc3ccccc3)cc2C1=O | inactive | inactive | inactive
Cc1noc(C)c1NC(=O)Nc1ccc2c(c1)C(=O)N([C@@H](C)CO)C[C@H](C)[C@@H](CN(C)C(=O)Nc1c(C)noc1C)OCCCC[C@H](C)O2 | inactive | inactive | inactive
C=CC[C@@H](CC(=O)N(CCO)Cc1ccccc1)C(=O)N[C@@H](COC(=O)[C@@H](CC=C)CC(=O)OC(C)(C)C)Cc1c[nH]c2ccccc12 | inactive | inactive | inactive
NC(=O)C1CCCN1C(=O)C(Cc1c[nH]cn1)NC(=O)C1CCC(=O)N1 (stereo not given) | inactive | inactive | inactive
CC(=O)N(C)C[C@H]1Oc2ncc(C#CC(C)(C)O)cc2C(=O)N([C@H](C)CO)C[C@H]1C | inactive | inactive | inactive
Cc1ccc(S(=O)(=O)N(C)C[C@@H]2Oc3ccc(NS(=O)(=O)c4cccs4)cc3C(=O)N([C@@H](C)CO)C[C@@H]2C)cc1 | inactive | inactive | inactive
CC12CCC(=O)C=C1C1CC1C1C2CCC2(C)C1C1CC1C21CCC(=O)O1 (stereo not given) | inactive | inactive | inactive
